# About 170 (0.045%) of roughly 380,000 compounds were called active. Inconclusive means that the source gave no clear call. Such entries were picked first, then a sample of the others. Calls come from the whole dose curve; as a rule, active = well fitted inhibition curve with a large enough effect; inconclusive = small, poorly fitted or top-dose-only effect; inactive = no such curve, though single readings can be large or run the other way. No potency is given beside an inconclusive call; the fits are too rough.
# Target: Phosphoglycerate kinase, glycosomal (Trypanosoma brucei brucei) (UniProt P07378)
# Experiment: qHTS Assay to Find Inhibitors of Phosphoglycerate Kinase; note: nearly all actives have a fitted effect of over 60% in size
# Details: PGK/GAPDH coupled, Kinase-Glo luminescence, 60 min; series mostly up to 57.5 µM; activity change, negative = inhibition: at the top concentration
# Summary of the method: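 Recombinant glycosomal PGK reaction used 1,3-bisphosphoglycerate generated in-well by GAPDH (100nM final) in 100mM TEA pH 7.6, 5mM MgCl2, 0.01% Tween-20. After 60 minutes at room temperature, ATP was read by Kinase-Glo Plus luminescence end-point.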
# % is set by controls: 0 for no effect and ±100 for the full control effect; potency is the fitted concentration of half-maximal effect; tags give direction and shape of the fitted curve.
SMILES,Potency,"activity change, negative = inhibition",outcome
CCC(=O)Nc1ccc(C(=O)COC(=O)c2nc3nccc(C)n3n2)cc1,"inconclusive [inhibitor, single point]",,
COc1ccc(NC(=O)CSc2nc(O)cc(=O)n2-c2ccccc2OC)cc1,,inactive: -5.39%,
Cn1nnnc1SCC1=C(C(=O)O)N2C(=O)[C@@H](NC(=O)[C@H](O)c3ccccc3)[C@H]2SC1,"inconclusive [inhibitor, partial curve, poor fit]",,
Cc1ccc(C(=O)COc2ccc3c(C)cc(=O)oc3c2)cc1,,inactive: 6.71%,
Cc1ccc2sc(N(CCCN(C)C)C(=O)CCS(=O)(=O)c3ccccc3)nc2c1C,,inactive: -6.49%,
Cn1c(-c2ccc(Br)o2)nc2ccccc21,"inconclusive [inhibitor, partial curve, poor fit]",,
COC(=O)C(NNc1ccccc1)(NC(=O)c1ccc(F)cc1)C(F)(F)F (stereo unspecified),,inactive: 8.18%,
CCc1ccc(NC(=O)Nc2ccsc2C(=O)OC)cc1,"inconclusive [inhibitor, partial curve]",,
Cn1c(=O)c2[nH]c(N=NNc3ccccc3F)nc2n(C)c1=O,,inactive: -2.74%,
Nc1ccc(S(=O)(=O)Nc2nccs2)cc1N=Nc1ccccc1[N+](=O)[O-],"inconclusive [inhibitor, partial curve, poor fit]",,
O=C(NC(=S)N1CCCCCC1)c1ccccc1Cl,,inactive: -4.22%,
CCOC(=O)c1cnc(-n2nc(C)cc2C)nc1Nc1ccc(OC)cc1,,inactive: -9.95%,
COc1cc2c(C#N)c(N3CCCC3)nc(N)c2c(N)n1,"inconclusive [inhibitor, single point]",,
Cc1ccc2c(=O)cc(C(=O)N(Cc3ccc(C(C)(C)C)cc3)C3CCS(=O)(=O)C3)oc2c1 (stereo unspecified),,inactive: -1.54%,
CCc1ccccc1NC(=O)CCS(=O)(=O)c1ccc(OC)cc1,"inconclusive [inhibitor, partial curve, poor fit]",,
Nc1c(/C=C2/C=CC(=O)C(O)=C2)c(=O)nc2sc(CC(=O)N3CCCCC3)nn12,"inconclusive [inhibitor, partial curve, poor fit]",,
CCOC(=O)c1ccc(NC(=S)N2CCN(C)CC2)cc1,"inconclusive [inhibitor, single point]",,
CC1=C(C#N)C(=O)NC(=O)/C1=C/c1ccc(-c2ccc(S(N)(=O)=O)cc2)o1,"inconclusive [inhibitor, partial curve, poor fit]",,
Cc1cc(NC(=O)c2cc(-c3ccc(C)s3)nc3ccccc23)no1,,inactive: -9.84%,
O=C(c1nc(SCc2ccc([N+](=O)[O-])cc2)n2ccccc12)C(F)(F)F,,inactive: 5.5%,
CCOC(=O)C1CCCN(C(=O)c2cc(-c3ccco3)nc3ccccc23)C1 (stereo unspecified),"inconclusive [inhibitor, partial curve]",,
COc1cccc(-c2cn3nc4c(nc3n2)CCCC4)c1,"inconclusive [inhibitor, single point]",,
CCOc1ccc(CCNC(=O)c2ccc3ccccc3n2)cc1OCC,,inactive: 5.07%,
Cc1ncoc1C(=O)Nc1ccc2c(c1)OCCO2,"inconclusive [inhibitor, single point]",,

SMILES,Potency,"activity change, negative = inhibition",outcome
COc1ccc(C=C2C(=O)c3ccccc3C2=O)cc1O,"inconclusive [inhibitor, single point]",,
Cc1ccc(NC(=O)CN2C(=O)S/C(=C\c3ccc(-c4cccc(C(=O)O)c4C)o3)C2=O)cc1C,"inconclusive [inhibitor, full curve, poor fit]",,
O=C(CN1CCN(C(c2ccccc2)c2ccccc2)CC1)N1N=CCC1c1ccccc1 (stereo unspecified),,inactive: 2.93%,
N#C/C(=C\c1ccc(C(=O)O)cc1)c1nc2sc3c(c2c(=O)[nH]1)CCCC3,"inconclusive [inhibitor, partial curve, poor fit]",,
COc1cccc(C(=O)Nc2ccc(C(=O)O)cc2)c1,"inconclusive [inhibitor, partial curve, poor fit]",,
Cc1ccc(-c2nc3ccccc3n2C)o1,"inconclusive [inhibitor, partial curve, poor fit]",,
Cc1cc(C)nc(N2CCN(c3ccc(F)cc3)CC2)n1,"inconclusive [inhibitor, single point]",,
CCOc1cccc2sc(N(CCCN(C)C)C(=O)c3ccc(S(=O)(=O)N(C)CC4CCCO4)cc3)nc12 (stereo unspecified),,,inactive
O=C(Nc1cccc(Cl)c1)c1c(NC(=O)C(F)(F)F)sc2c1CCCC2,"inconclusive [inhibitor, single point]",,
Cc1ccc(Cl)cc1N1CCN(C(=O)CSc2nnc3n2C(C)(C)Cc2ccccc2-3)CC1,,inactive: -7.95%,
CCN1C(=O)S/C(=C/c2ccc(Sc3nc4ccccc4[nH]3)o2)C1=O,,,inactive
Cc1nc(SCC(=O)Nc2cccnc2Cl)nc(C)c1C,"inconclusive [inhibitor, partial curve, poor fit]",,
COc1ccccc1/C=N/Nc1nccnc1Cl,"inconclusive [inhibitor, partial curve, poor fit]",,
C=C(C)C(=O)Nc1cccc(C2=NOC3(C2)C[C@H](C(N)=O)N(C(=O)c2ccccc2)C3)c1 (stereo partly specified),active: 11.2 µM,,
O=c1oc2ccccc2cc1-c1cn2ccccc2n1,"inconclusive [inhibitor, partial curve, poor fit]",,
O=C(O)CCCN1C(=O)/C(=C/C=C/c2ccco2)SC1=S,"inconclusive [inhibitor, partial curve]",,
CN1CCN(CC(=O)Nc2sc3c(c2C(=O)Nc2ccccc2)CCCC3)CC1,,inactive: 3.86%,
COc1cccc(OC)c1C(=O)NC(=O)NNc1cc(C(F)(F)F)cc(C)n1,,,inactive
CCCCc1ccc(NC(=O)c2cc3c(=O)n4ccccc4nc3n2C)cc1,,inactive: -8.62%,
O=C(O)c1cccc(N2C(=O)C=CC2=O)c1,,inactive: -4.84%,
C=C(C)C(=O)Nc1cccc(C2=NOC3(C2)C[C@@H](C(N)=O)N(C(=O)c2cc([N+](=O)[O-])cc([N+](=O)[O-])c2)C3)c1 (stereo partly specified),active: 17.8 µM,,
Cc1ccc(NC(=S)NNC(=S)NCc2ccccc2)cc1,,inactive: -2.1%,
CN(C(=O)c1ccc(NC(=O)c2ccco2)cc1)c1ccccc1,"inconclusive [inhibitor, single point]",,
O=C(O)c1cccc(-n2cccc2/C=C2\SC(=O)N(Cc3ccccc3F)C2=O)c1,"inconclusive [inhibitor, partial curve, poor fit]",,

SMILES,Potency,"activity change, negative = inhibition",outcome
O=C(O)c1ccc(COc2ccc3c4c(c(=O)oc3c2)CCC4)o1,"inconclusive [inhibitor, partial curve, poor fit]",,
CC(=O)c1cccc(OCC(=O)N(C)CC(=O)NCc2ccco2)c1,active: 14.1 µM,,
COCCOC(=O)c1c(C)oc2ccc(OCc3ccccc3)cc12,,,inactive
O=C(/C=C\Nc1ccc2c(c1)OCO2)c1ccccn1,"inconclusive [inhibitor, partial curve]",,
O=C(NCCCc1ccccc1)c1cccc(NC(=O)C2CC2)c1,,inactive: -3.86%,
N#Cc1cn(CCOc2ccc(F)cc2)c2ccccc12,,inactive: -1.82%,
CCCCSC(=O)Nc1ccccc1,,inactive: -3.43%,
Cc1ccccc1C(=O)Nc1nnc(S(=O)(=O)N(C)c2ccc(Cl)cc2)s1,,inactive: -7.58%,
Cc1ccc(NS(=O)(=O)c2c(F)cc(F)c(Cl)c2F)cc1S(=O)(=O)N1CCOCC1,,,inactive
C=CCSC1=N/C(=C\C=C\c2ccco2)C(=O)S1,"inconclusive [inhibitor, partial curve]",,
O=C(N/N=C/c1ccc(-c2ccc(Cl)c(C(=O)O)c2)o1)c1cc2c(ccc3ccccc32)o1,"inconclusive [inhibitor, single point]",,
N/C(=N\OC(=O)c1ccc(Cl)cc1)c1ccccn1,"inconclusive [inhibitor, partial curve]",,
Cc1ccc(CN2C(=O)N/C(=C\c3ccc(-c4ccc(C(=O)O)cc4C)o3)C2=O)cc1,"inconclusive [inhibitor, single point]",,
CCOc1ccc2nc(N(CCN(CC)CC)C(=O)/C=C/c3cccs3)sc2c1,,inactive: -4.78%,
O=C(O)c1cc2n(n1)CCN(Cc1ccccc1Cl)C2=O,"inconclusive [inhibitor, single point]",,
Oc1c(/C=N/c2ccccn2)sc2ccccc12,"inconclusive [inhibitor, partial curve, poor fit]",,
O=C(CCc1ccccc1)Nc1ccc(NC(=O)C2CC2)nc1,"inconclusive [inhibitor, single point]",,
O=C(CCS(=O)(=O)c1ccc(Br)cc1)NCc1cccs1,"inconclusive [inhibitor, partial curve, poor fit]",,
CCn1cnc2cc(NCc3nc4ccccc4n3C)ccc21,"inconclusive [inhibitor, partial curve, poor fit]",,
COC(=O)c1cc(O)cc(OC)c1C(=O)c1c(O)cc(C)cc1O,"inconclusive [inhibitor, partial curve, poor fit]",,
Cc1cc(-c2ccccc2)nc2cc(C(=O)NCc3ccco3)nn12,"inconclusive [inhibitor, single point]",,
Nc1ccc(N2CCCCC2)c2nonc12,"inconclusive [inhibitor, single point]",,
CC(=O)N1CCc2cc(Br)cc(S(=O)(=O)CCC(=O)N3CCN(c4ccc(F)cc4)CC3)c21,"inconclusive [inhibitor, partial curve, poor fit]",,

# Reference: PubChem BioAssay AID602233 (National Center for Advancing Translational Sciences (NCATS), 2012)
